B1: tRNA (parent)
chain: CUCUCGGUAGCCAAGUUGGUUUAAGGCGCAAGACUUUAAUUUAUCACUACGAAAUCUUGAGAUCGGGCGUUCGACUCGCCCCCGGGAGAUUUUUUCCUCGAGCAA

Variants at the background level are over-represented here.

In this series the parent is B1. Kind of series: nonsense suppression (GFP-seq) (ratio to wild type); higher = more function; SUP4oc tRNA, yeast GFP reporter sort-seq. In a few lines:
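To measure nonsense suppression, tRNA variants from a library carrying ~3% random mutations were integrated into the yeast genome alongside RFP and a GFP ochre reporter under galactose control. Growth took place in raffinose/galactose medium supplemented with 80 mg/L adenine, followed by sorting into GFP/RFP bins and Illumina sequencing of each bin (phred ≥30). For each variant with ≥100 reads and ≥30 cells, the bin median GFP/RFP values were weighted by its estimated cell share per bin and referenced to the unmutated parent tRNA.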
Take G18C A23C C80A: the nonsense suppression was not above 0.026.

With A9C A60C C80G, the nonsense suppression was not above 0.026.

With C56G U57G C68A G78C C82A, the nonsense suppression was not above 0.026.

For G15U U16A C68U, the nonsense suppression is not above 0.026.

In the case of A23G G26U, the nonsense suppression was not above 0.026.

A33C U57C: the nonsense suppression is not above 0.026.

With C75G C80A, the nonsense suppression was not above 0.026.

In the case of G65A C68A, the nonsense suppression was not above 0.026.

On to C1G A13U G25U G59C, for which the nonsense suppression is not above 0.026.

For the variant C1U G32C U70A C80G, the nonsense suppression is not above 0.026.

As to G6U G15C A24G G26A, the nonsense suppression is not above 0.026.

With A60C G61A G69A G84A, the nonsense suppression is not above 0.026.

For U21C C34A C64U, the nonsense suppression was not above 0.026.

Consider U22C A24C G86A, for which the nonsense suppression was not above 0.026.

As to A13G A62U C77U G86A, the nonsense suppression was not above 0.026.

U8A G19U C81G: the nonsense suppression is not above 0.026.

For G7A C34G, the nonsense suppression is not above 0.026.

With A31U C82G, the nonsense suppression is not above 0.026.

As to G6A C80U, the nonsense suppression was not above 0.026.

As to C5A G15U A33C U70G, the nonsense suppression is not above 0.026.

Regarding U4G A54U C77G, the nonsense suppression was not above 0.026.

As for A14G U16G C64U, the nonsense suppression was not above 0.026.

As to A31U C80G G84A, the nonsense suppression is not above 0.026.

With C29A A74G, the nonsense suppression was not above 0.026.

As for C27U A31C C72U C79G, the nonsense suppression is not above 0.026.

Consider A62U G85C A89C, for which the nonsense suppression is not above 0.026.

On to U8C C27U, for which the nonsense suppression is not above 0.026.

A9G U21G A74U C77U: the nonsense suppression is not above 0.026.

As to C11U G32A G84U, the nonsense suppression is not above 0.026.

For the variant G25C C27U C29A U58A G69A C72A, the nonsense suppression is not above 0.026.

In the case of U55A U57A C77A, the nonsense suppression is not above 0.026.

On to A24G G28A A87G, for which the nonsense suppression was not above 0.026.

Turning to C12G U21C U63A A87U, the nonsense suppression is not above 0.026.

Consider U71G U76C, for which the nonsense suppression was not above 0.026.

In the case of G19A U20G G25C U35A G59U, the nonsense suppression is not above 0.026.

For the variant C27G C82U, the nonsense suppression is not above 0.026.

Take C3G A31G G65C C75G: the nonsense suppression is not above 0.026.

Regarding U2C U16G G25C U55A, the nonsense suppression was not above 0.026.

Regarding A24U G65C, the nonsense suppression was not above 0.026.

With A24C C29G A54G, the nonsense suppression is not above 0.026.

On to C11U C75A, for which the nonsense suppression came out at 0.168.

For C1G G6U A9U A60C, the nonsense suppression is not above 0.026.

For the variant U2G C12A G15U G88C, the nonsense suppression was not above 0.026.

On to C11A U76G, for which the nonsense suppression was not above 0.026.

As for U35A U63A C64A U70G, the nonsense suppression is not above 0.026.

Consider U16C A60C G69A C80U, for which the nonsense suppression was not above 0.026.

Take G7U A24G A89G: the nonsense suppression was not above 0.026.

Turning to A9C A31U C77G, the nonsense suppression is not above 0.026.

As for G18U U22G U58G, the nonsense suppression is not above 0.026.

In the case of U4G A54C, the nonsense suppression was not above 0.026.

As to A9C U22A, the nonsense suppression came out at 0.709.

In the case of A23C G66A G86C, the nonsense suppression was not above 0.026.

Consider U35G A54G, for which the nonsense suppression is not above 0.026.

Take U8C A54U G85C G88C: the nonsense suppression was not above 0.026.

On to U55A C64A G86A, for which the nonsense suppression was not above 0.026.

As to A14U U21G A23C A31G A62U, the nonsense suppression was not above 0.026.

In the case of C1G A9G G18A A24C, the nonsense suppression is not above 0.026.

On to C1A U20G A24C C27G U70G C77U C81U G85A, for which the nonsense suppression was not above 0.026.

U57G U71A: the nonsense suppression was not above 0.026.

Regarding C1U A31C A33U A54G, the nonsense suppression was not above 0.026.

Take C1U G6U A33U C77G A89G: the nonsense suppression was not above 0.026.

Take U20C U76C G78C: the nonsense suppression was not above 0.026.

With A13U U16A, the nonsense suppression worked out at 0.837.

For the variant U4C U55A, the nonsense suppression was not above 0.026.

Turning to U17A U55A, the nonsense suppression is not above 0.026.

For the variant A24C C27U U58C, the nonsense suppression is not above 0.026.

As for C5A A14C G86A, the nonsense suppression was not above 0.026.

Take U2C U57G G73A: the nonsense suppression is not above 0.026.

A14G U16C A24U A33G U71C G84U: the nonsense suppression is not above 0.026.

Turning to C3U G18A G28U G86A, the nonsense suppression is not above 0.026.

Take G26C G66A G73A C77G: the nonsense suppression was not above 0.026.

Consider C75U C81G A89G, for which the nonsense suppression is not above 0.026.

For U17A A89U, the nonsense suppression is not above 0.026.

Turning to C11U G19U C64A, the nonsense suppression was not above 0.026.

C11G A60U A74U: the nonsense suppression is not above 0.026.

On to G6C, for which the nonsense suppression is not above 0.026.

In the case of C12G A14C G61C A62C G73U, the nonsense suppression was not above 0.026.

For the variant U17A A74G U76C C77U G78C C79G A89G, the nonsense suppression is not above 0.026.

Regarding C27A C56G A62C U63A, the nonsense suppression was not above 0.026.

A14C U71A: the nonsense suppression is not above 0.026.

As for G7C G15A G19C G25U, the nonsense suppression was not above 0.026.

Regarding G28U C72U, the nonsense suppression was not above 0.026.

For A62C, the nonsense suppression was not above 0.026.

Consider C12U U58G A60C, for which the nonsense suppression was not above 0.026.

With U8G U55A U71A, the nonsense suppression is not above 0.026.

Regarding G10U A23G A62U, the nonsense suppression was not above 0.026.

As to U63G G69A, the nonsense suppression came to 0.116.

As for G67U C79G, the nonsense suppression was 0.768.

In the case of G6U U21C, the nonsense suppression was not above 0.026.

For G6U A33U A60C, the nonsense suppression is not above 0.026.

With U21C G26C C27U C56A C79G G85A, the nonsense suppression is not above 0.026.

For the variant G32A A60C G86A, the nonsense suppression is not above 0.026.

Consider U22C A24U A87C, for which the nonsense suppression was not above 0.026.

For the variant U8G A62U G65A C83U, the nonsense suppression was not above 0.026.

Take U21A U55A G59C U63C: the nonsense suppression is not above 0.026.

With U16G C56A U58G A60C, the nonsense suppression is not above 0.026.

As for C56A U63C, the nonsense suppression is not above 0.026.

Consider G6U A13U U21G, for which the nonsense suppression was not above 0.026.

Turning to A54G C77U, the nonsense suppression is not above 0.026.

In the case of A14G G15A C56U G61U G69U U71G, the nonsense suppression is not above 0.026.

Take U35A A89G: the nonsense suppression is not above 0.026.

For the variant C11U A24U C34A C83U, the nonsense suppression was not above 0.026.

Consider C5U A14U G28U G66C C79A, for which the nonsense suppression is not above 0.026.

With C29U C56G U58G, the nonsense suppression was not above 0.026.

Take C83A G88A: the nonsense suppression was not above 0.026.

G67A U70G A87U: the nonsense suppression is not above 0.026.

As for C3A U22G U35G G67C G69A U71G, the nonsense suppression was not above 0.026.

Consider U17G U55A, for which the nonsense suppression is not above 0.026.

Turning to A14G U71A A87U, the nonsense suppression is not above 0.026.

Regarding G73A U76C A89C, the nonsense suppression is not above 0.026.

Take U58G G59A U63G: the nonsense suppression is not above 0.026.

With A14G A30U U58G, the nonsense suppression is not above 0.026.

As to C11U U57G G59A, the nonsense suppression is not above 0.026.

Turning to U21C G25A G26A, the nonsense suppression is not above 0.026.

For A13U A14G C75A U76G G88C, the nonsense suppression is not above 0.026.

For U63A G73A A74C A87U, the nonsense suppression was not above 0.026.

Consider U4G U21G G78A G84A, for which the nonsense suppression was not above 0.026.

As for C11G U63A G65C, the nonsense suppression is not above 0.026.

For the variant U63A C82G, the nonsense suppression is not above 0.026.

For U20A G26A A74U, the nonsense suppression was not above 0.026.

G6C G69C: the nonsense suppression is not above 0.026.

Regarding C12U U57A A62U, the nonsense suppression was not above 0.026.

Regarding C12A A62C, the nonsense suppression is not above 0.026.

With C12U A13G U21A, the nonsense suppression worked out at 0.0262.

As for U4C G66A A89U, the nonsense suppression is not above 0.026.

In the case of C12U A60U C72G U76G G84U, the nonsense suppression was not above 0.026.

As for U2A U55C U71C G78C, the nonsense suppression was not above 0.026.

Consider C11U A23G U55A, for which the nonsense suppression is not above 0.026.

Take C72A G84U G86A: the nonsense suppression was not above 0.026.

Take U4C G18A C72G: the nonsense suppression was not above 0.026.

For the variant C12A A13C U21G U57C A62U A74C, the nonsense suppression was not above 0.026.

In the case of A33U A60U G67U, the nonsense suppression is not above 0.026.

Take A23G G59A G69A: the nonsense suppression is not above 0.026.

On to A13U C29U C82A G86U, for which the nonsense suppression is not above 0.026.

In the case of C1U G7U U35C G65U U76A, the nonsense suppression was not above 0.026.

In the case of G61C C82A, the nonsense suppression was not above 0.026.

On to U20G G25A G78A, for which the nonsense suppression was not above 0.026.

On to G15C A30U G69C A74G, for which the nonsense suppression is not above 0.026.

On to G6A G7A G69U, for which the nonsense suppression is not above 0.026.

In the case of U8A G19A C29A U55C A62U G69A C79U A87C, the nonsense suppression is not above 0.026.

G10A A24U G73A: the nonsense suppression is not above 0.026.

For the variant U17A G19C A74G, the nonsense suppression was not above 0.026.

As to C12U U57C, the nonsense suppression was not above 0.026.

With U8C A23C G32C A62G, the nonsense suppression is not above 0.026.

In the case of U63C G66A, the nonsense suppression is not above 0.026.

Consider C80G G84C G88A, for which the nonsense suppression is not above 0.026.

U4C U58G G59U: the nonsense suppression is not above 0.026.

Regarding C1G C34G G84U, the nonsense suppression is not above 0.026.

For the variant C27U G78C, the nonsense suppression is not above 0.026.

For U76C G86C, the nonsense suppression was not above 0.026.

With U57A G61C G65A, the nonsense suppression is not above 0.026.

Consider G6U A31G U71A, for which the nonsense suppression is not above 0.026.

Turning to A23G G28A G32C, the nonsense suppression is not above 0.026.

Take C29U A31C C68U C77A: the nonsense suppression is not above 0.026.

For G32U U57A G61A G69U U76C, the nonsense suppression was not above 0.026.

On to A30G G61U U63A G84U, for which the nonsense suppression was not above 0.026.

For the variant U8C G25C U57A U70C U76C, the nonsense suppression was not above 0.026.

Turning to G7C G15U G86A, the nonsense suppression is not above 0.026.

For C3A A23G U70G, the nonsense suppression was not above 0.026.

For U8C U70G A74C G84C, the nonsense suppression was 0.0541.

In the case of A31C U35G G73A, the nonsense suppression is not above 0.026.

U22G U63A G65U C68A: the nonsense suppression is not above 0.026.

In the case of G69U C75A, the nonsense suppression was not above 0.026.

On to A24G C72G G78A, for which the nonsense suppression was not above 0.026.

Regarding U20G C34A G88U, the nonsense suppression is not above 0.026.

Take C3U G6A C83G A89C: the nonsense suppression was not above 0.026.

For the variant A60G U70C C75A, the nonsense suppression was not above 0.026.
